The test system of the test is Plasmodium falciparum. Briefly: Primary screen in NF54 nanoGlo assay, in single point, at 2uM, 72h; a lower Z score goes with more inhibition. Format: functional, Erythrocyte. The settings on record: timepoint 72 hour.

The record followed here is ChEMBL document CHEMBL4888484, “Replenishing the malaria drug discovery pipeline: Screening and hit evaluation of the MMV Hit Generation Library 1 (HGL1) against asexual blood stage Plasmodium falciparum ,using a nano luciferase reporter read-out” (2022).

Several values for one entry are separate records, joined by “and”; a condition that tells them apart may be missing. Equal entries are not always repeated. The campaign covered roughly 150,000 compounds. About 540 (0.36%) showed an effect of 50% or more. The list shows a part of the results.

Take `CCc1cccc(NC(=O)Cc2c(C)nc(C)[nH]c2=O)c1`: the “% Inhibition” value was -7% and the Z score is listed as 1.43.

`COC1CN(c2ccc(NC(=O)Nc3cccc(C)c3)cc2)C1`: the “% Inhibition” value is -4% and the Z score worked out at 0.54.

As to `CN(Cc1ccccc1)[C@H]1CCOC2(CCN(C(=O)CC3CCCC3)CC2)C1`, the “% Inhibition” value is -13% and the Z score was determined as 1.67.

On to `CCOc1nc(-c2cccc(F)c2)n(-c2ccc(NC(=O)Nc3ccc(F)cc3F)cc2)n1`, for which the “% Inhibition” value is -9% and the Z score was determined as 1.18.

As for `CC(C)(CNC(=O)[C@@H]1CS(=O)(=O)CC(=O)N1)C1=CCCCC1`, the “% Inhibition” value is listed as -4% and the Z score came to 0.72.

As for `O=C(CN1N=C(c2ccccc2)c2cc(Cl)ccc2S1(=O)=O)NCCc1ccccc1`, the “% Inhibition” value stood at 11% and the Z score is given as -1.01.

Consider `CCN(CCCCO)S(=O)(=O)c1cccc(C(=O)N2CCC2)c1`, for which the “% Inhibition” value is listed as -4% and the Z score is 0.52.

As to `CCCCN(CC(=O)N1c2ccccc2-n2cccc2[C@H]1c1ccc(Cl)cc1)C(=O)Nc1cccc2ccccc12`, the “% Inhibition” value was -1% and the Z score amounted to 0.17.

On to `CC(C)c1ccc(-c2cccc3c2O[C@@H](CN)C3)nn1`, for which the “% Inhibition” value is -12% and the Z score is on record as 1.75.

As to `COC(=O)C[C@H]1CCCCN1CC(=O)NC(=O)NC1CCCCC1`, the “% Inhibition” value is on record as -10% and the Z score is on record as 1.85.

Regarding `CC(NC(=O)CN1CC(C)(C)C1c1cccs1)c1ccc(F)cc1` (configuration not stated), the “% Inhibition” value was found to be 3% and the Z score is -0.41.

In the case of `O=C(CC1CCC1)N1CCN(Cc2cccs2)C[C@H](O)C1`, the “% Inhibition” value is -18% and the Z score turned out to be 3.41.

Take `CC(=O)NCC1=CCCN(CCC(F)(F)C(F)(F)F)C1`: the “% Inhibition” value is -4% and the Z score stood at 0.83.

As for `CCS(=O)(=O)N(C)C1CCN(C(=O)[C@@H]2CCCc3ccccc32)CC1`, the “% Inhibition” value was -3% and the Z score was 0.47.

`COC(=O)[C@H](CO)NS(=O)(=O)Cc1ccccc1`: the “% Inhibition” value was -13% and the Z score came to 1.5.

Consider `Cc1n[nH]c(C)c1CC(=O)N1CCC2(CC1)Cc1cn(nn1)CCCNC(=O)[C@H](Cc1ccccc1)NC2=O`, for which the “% Inhibition” value was determined as 12% and the Z score was -1.56.

Take `Cc1cc(C)c(NC(=O)C2(N(Cc3ccco3)C(=O)CN3C(=O)c4ccccc4C3=O)CCC3Cc4ccccc4CC3C2)c(C)c1` (configuration not stated): the “% Inhibition” value is -45% and the Z score is recorded as 5.25.

For `Cc1noc2nc(C3CC3)cc(C(=O)N[C@H]3CCOc4c(F)cccc43)c12`, the “% Inhibition” value turned out to be 7% and the Z score is -1.14.

Consider `CCc1nnc(CN2CCOC[C@@H]2CC2CCC2)n1C`, for which the “% Inhibition” value is given as -15% and the Z score is listed as 2.48.

With `COc1ccc(OC)c2c1cc(C(=O)Nc1nnc(CC(C)C)s1)n2C`, the “% Inhibition” value was -14% and the Z score is 1.77.

With `COc1cccc(CS(=O)(=O)Cc2nc(C)c(C)s2)c1`, the “% Inhibition” value was -18% and the Z score stood at 3.35.

Turning to `Cc1cc(CNC2CCC3CC2CN3C(=O)OC(C)(C)C)ccn1` (configuration not stated), the “% Inhibition” value is -1% and the Z score came to 0.21.

`O=C1c2ccccc2C(=O)N1CCN1CCC[C@H]1c1ccsc1`: the “% Inhibition” value was -6% and the Z score worked out at 0.99.

Consider `Cc1csc(CNC(=O)NCc2nnc3n2CCOCC3)c1`, for which the “% Inhibition” value is -2% and the Z score was 0.17.

For the compound `CC1OCCC1NC(Cc1ccccc1)C(=O)N1CCCCC1` (configuration not stated), the “% Inhibition” value was found to be 5% and the Z score was -0.79.

On to `COc1ncccc1CNC(=O)c1cc(C)nc(C(F)(F)F)n1`, for which the “% Inhibition” value is given as -15% and the Z score turned out to be 2.06.

As for `Cc1occc1C(=O)N[C@@H]1CN(Cc2ccccn2)C[C@H]1CO`, the “% Inhibition” value is -8% and the Z score is 1.16.

For `O=c1ncc2c(cnn2[C@H]2CCS(=O)(=O)C2)n1Cc1ccc(C(F)(F)F)cc1`, the “% Inhibition” value was found to be 0% and the Z score amounted to 0.05.

For the compound `COc1ccc([C@@H]2CNCCN2C)cc1OC`, the “% Inhibition” value is given as -4% and the Z score is reported as 0.5.

On to `Cc1noc([C@@H]2CCCO[C@H]2C2CCN(CC3CCC3)CC2)n1`, for which the “% Inhibition” value was determined as 6% and the Z score is reported as -0.84.

Take `COc1ccc(C2(C#N)CCC3(CC2)OCCO3)cc1OC`: under “2 µM”, the “% Inhibition” value is -3% and -11%; the Z score was 0.59 and 1.51.

In the case of `CCc1cnc(C)nc1N1CCC(Oc2ncccn2)CC1`, the “% Inhibition” value is reported as 3% and the Z score is reported as -0.46.

`CC(=O)N1C[C@@H]2C[C@H](NC(=O)c3cc(C)ccc3C)CN2C(=O)[C@@H]1C`: the “% Inhibition” value is listed as -23% and the Z score came to 2.06.

On to `Cn1nccc1CN(CCO)Cc1nccs1`, for which the “% Inhibition” value was -12% and the Z score is recorded as 1.46.

Consider `c1coc(CN(Cc2nnnn2C2CC2)C2CC2)c1`, for which the “% Inhibition” value is -8% and the Z score worked out at 0.74.

Consider `COc1cc2c(cc1OC)CN(C(=O)c1cnn[nH]1)CC2`, for which the “% Inhibition” value is 6% and the Z score is on record as -0.82.

Take `CCc1nc(C#N)cc(N2C3CCC2CN(C(=O)OC(C)(C)C)C3)n1`: the “% Inhibition” value is listed as -6% and the Z score is recorded as 0.77.

In the case of `N#Cc1cccnc1NCCc1ccccn1`, the “% Inhibition” value was determined as 1% and the Z score is reported as -0.15.

For `Cc1coc(C(=O)N2CC[C@H](NS(C)(=O)=O)C2)c1C`, the “% Inhibition” value is given as -8% and the Z score worked out at 1.3.

Consider `Cn1nnnc1CCNC(=O)N1CCC[C@H](c2ccc(F)c(F)c2)C1`, for which the “% Inhibition” value is recorded as -8% and the Z score came out at 1.56.

For the compound `Cc1nn(C)c(C)c1C(=O)N1CCCC1`, the “% Inhibition” value was -6% and the Z score worked out at 0.87.
